# B1: EphA2 ΔSAM fused at the C terminus to a fluorescent protein via a flexible (GGS)5 linker (receptor)
# chain: [left out - about 500 residues]IGGVAVGVVLLLVLAGVGFFIHRRRKNQRARQSPEDVYFSKSEQLKPLKTYVDPHTYEDPNQAVLKFTTEIHPSCVTRQKVIGAGEFGEVYKGMLKTSSGKKEVPVAIKTLKAGYTEKQRVDFLGEAGIMGQFSHHNIIRLEGVISKYKPMMIITEYMENGALDKFLREKDGEFSVLQLVGMLRGIAAGMKYLANMNYVHRDLAARNILVNSNLVCKVSDFGLSRVLEDDPEATYTTSGGKIPIRWTAPEAISYRKFTSASDVWSFGIVMWEVMTYGERPYWELSNHEVMKAINDGFRLPTPMDCPSAIYQLMMQCWQQERARRPKFADIVSILDKLIRAPDSLKTLADFDPRVSIRLPSTSGSVGIPI
# notes: EphA2 receptor tyrosine kinase lacking […], which include the SAM domain ([…]); FIF used the eYFP form alone; FSI-FRET used cells co-transfected with the mTurquoise (donor) and eYFP (acceptor) forms; Vector pcDNA3.1(+); also called EphA2 ΔSAM-eYFP; EphA2 ΔSAM-mTurquoise; source: HEK293T, transiently transfected, in the plasma membrane of the cells; not shown: eYFP or mTurquoise (after a 15 amino …)
# B2: EphA2 ΔCyt fused at the C terminus to a fluorescent protein via a flexible (GGS)5 linker (domain or fragment)
# chain: not shown
# notes: EphA2 receptor tyrosine kinase truncated at amino acid 568 (lacks […]); keeps the extracellular region, the transmembrane helix ([…]) and a polar, basic stretch (559-568); FIF used the eYFP form alone; FSI-FRET used cells co-transfected with the mTurquoise (donor) and eYFP (acceptor) forms; Vector pcDNA3.1(+); also called EphA2 ΔCyt-eYFP; EphA2 ΔCyt-mTurquoise; source: HEK293T, transiently …
# How the values were obtained:
# [1] = molecular target: the molecule itself; assay: fluorescence intensity fluctuation (FIF) spectrometry; with 200 nM m-ephrinA1; eYFP-tagged EphA2 variant in the plasma membrane of live, serum-starved HEK293T cells; confocal imaging; molecular brightness compared with a dimer control (TrkA + NGF)
# [2] = molecular target: the molecule itself; assay: fluorescence intensity fluctuation (FIF) spectrometry; no ligand; eYFP-tagged EphA2 variant in the plasma membrane of live, serum-starved HEK293T cells; confocal imaging; molecular brightness compared with a dimer control (TrkA + NGF)
protein,measurement,setting,value
B1,stoichiometry N,[1],> 2
same,stoichiometry N,[2],2
B2,stoichiometry N,[1],> 2
same,stoichiometry N,[2],2

# From publication PMC11999613, “Differential association of EphA2 intracellular regions in biased signaling” (The Journal of Biological Chemistry, 2025)
